In PubChem BioAssay (NCATS):
Inconclusive means that the source gave no clear call. Such entries were picked first, then a sample of the others. Potencies of inconclusive entries are left out as doubtful fits. Active and inactive are the calls of the source. Calls follow the shape of the dose curve; as a rule, active = well fitted inhibition curve with a large enough effect; inconclusive = small, poorly fitted or top-dose-only effect; inactive = no such curve, though single readings can be large or run the other way.
Potency is read from the fitted curve at half-maximal effect; tags tell the direction and shape of the fitted curve.

Each molecule was assayed against Rap guanine nucleotide exchange factor 3 (Homo sapiens) (UniProt O95398) (assay: Confirmatory qHTS for antagonist of cAMP-regulated guanine nucleotide exchange factor 3 (EPAC1) (AID 1645880; also: nearly all actives have a fitted effect of over 55% in size)). Settings: EPAC1 Rap1B-BODIPY-GDP exchange, fluorescence; series mostly up to 115 µM.
UniProt O95398, sequence (O95398 whole entry, looked up): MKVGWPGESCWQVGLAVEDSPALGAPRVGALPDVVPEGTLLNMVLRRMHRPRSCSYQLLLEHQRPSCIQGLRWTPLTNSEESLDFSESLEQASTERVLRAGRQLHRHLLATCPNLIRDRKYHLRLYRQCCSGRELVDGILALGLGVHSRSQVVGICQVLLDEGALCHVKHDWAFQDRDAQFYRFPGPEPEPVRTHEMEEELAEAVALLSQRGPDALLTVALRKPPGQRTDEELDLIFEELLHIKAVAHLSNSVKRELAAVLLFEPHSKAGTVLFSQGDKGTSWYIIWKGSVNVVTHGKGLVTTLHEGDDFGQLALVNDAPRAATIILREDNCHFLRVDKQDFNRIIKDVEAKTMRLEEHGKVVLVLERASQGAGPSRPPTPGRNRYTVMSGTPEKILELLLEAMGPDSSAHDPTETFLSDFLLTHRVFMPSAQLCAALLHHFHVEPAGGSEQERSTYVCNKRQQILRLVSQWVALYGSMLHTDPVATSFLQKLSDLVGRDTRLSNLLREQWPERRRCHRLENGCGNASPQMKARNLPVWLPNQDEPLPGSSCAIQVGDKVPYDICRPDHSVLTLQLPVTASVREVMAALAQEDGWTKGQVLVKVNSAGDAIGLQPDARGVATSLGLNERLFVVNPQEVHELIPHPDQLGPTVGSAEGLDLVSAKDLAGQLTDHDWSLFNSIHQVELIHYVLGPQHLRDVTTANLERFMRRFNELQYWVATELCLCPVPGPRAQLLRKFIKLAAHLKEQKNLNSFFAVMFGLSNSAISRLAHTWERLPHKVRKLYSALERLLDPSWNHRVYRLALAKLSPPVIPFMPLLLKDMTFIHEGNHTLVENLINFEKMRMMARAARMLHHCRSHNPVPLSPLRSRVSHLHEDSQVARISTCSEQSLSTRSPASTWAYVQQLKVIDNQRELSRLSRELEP
In short: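 Released BODIPY-GDP fluoresces less than Rap1-bound BODIPY-GDP; the signal is followed at 480/540 nm at 5-min intervals over 30 min, after 5 min at room temperature. Reactions contain 100 nM EPAC1, 250 nM RAP1B-BODIPY-GDP and 50 uM GDP; results are normalized to ATA and DMSO.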
For `COC(=O)c1cc2sc(C)cc2n1Cc1ccc(F)cc1Cl`, the Potency was “inactive”. `NC1=CC(=O)C(=O)c2cccnc21` was tested, and the Potency was active: 10 µM. With `COc1ccc2c(c1)OC/C(=C/c1ccc(O)c(O)c1)C2=O` the Potency was inconclusive [inhibitor, partial curve, poor fit]. `CN1CCN(S(=O)(=O)c2ccc(Nc3ccc(F)cc3)nc2)CC1` was tested, and the Potency was “inactive”. With `CC(=O)Nc1ccc(NC(=O)CNC(=O)COc2ccccc2)cc1` the Potency was inconclusive [inhibitor, partial curve, poor fit]. `O=C(O)CCc1ccc(-c2ccccc2)n1-c1cccc(Br)c1` was tested, and the Potency was “inactive”. In the case of `CN(C)c1ccc(C=C(C#N)C(=O)c2ccccc2)cc1Br`, the Potency is reported as inconclusive [inhibitor, partial curve]. With `COc1ccc(C)cc1-n1c(-c2ccc(Cl)cc2)cc2c1CC(C)(C)CC2=O` the Potency was “inactive”.
